Assay results reported in the supplement of paper PMC8948288.
Shown are siRNA guide strands that differ only in the seed, positions 2 to 7.

Key:
H4 = test: cell viability relative to siNT1 (ATP content); H4 human neuroglioma and GL261 mouse glioma; higher = less toxic; conditions: siRNA concentration 10 nM; 96 h; human
GL261 = test: as above; conditions: siRNA concentration 25 nM; 96 h; mouse
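Note: cells reverse transfected with siRNA duplexes via lipid reagent, ATP read by luminescence, triplicate wells, values scaled to mean viability with non-targeting control siNT1.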

Sequence | cell viability (H4) | cell viability (GL261)
UGGGGUCACAUGUAAACCA | 20.7% | 10.6%
UGGGGUGACAUGUAAACCA | 10% | 6.38%
UGGGGUUACAUGUAAACCA | 32.1% | 24%
UGGGUAAACAUGUAAACCA | 40.1% | 25.6%
UGGGUACACAUGUAAACCA | 66.4% | 48.2%
UGGGUAGACAUGUAAACCA | 21.4% | 9.11%
UGGGUAUACAUGUAAACCA | 43.8% | 18.4%
UGGGUCAACAUGUAAACCA | 44.2% | 16.8%
UGGGUCCACAUGUAAACCA | 28.2% | 7.68%
UGGGUCGACAUGUAAACCA | 27.3% | 13%
UGGGUCUACAUGUAAACCA | 27.6% | 9.61%
UGGGUGAACAUGUAAACCA | 12.4% | 13.7%
UGGGUGCACAUGUAAACCA | 11.6% | 9.87%
UGGGUGGACAUGUAAACCA | 4.54% | 16.8%
UGGGUGUACAUGUAAACCA | 34.5% | 20.9%
UGGGUUAACAUGUAAACCA | 61.4% | 39.3%
UGGGUUCACAUGUAAACCA | 70.1% | 11.6%
UGGGUUGACAUGUAAACCA | 37.5% | 54.8%
UGGGUUUACAUGUAAACCA | 82.3% | 65.4%
UGGUAAAACAUGUAAACCA | 104% | 54%
UGGUAACACAUGUAAACCA | 48% | 37.5%
UGGUAAGACAUGUAAACCA | 98.3% | 39.8%
UGGUAAUACAUGUAAACCA | 66.5% | 42.1%
UGGUACAACAUGUAAACCA | 59.4% | 34.7%

Sequence | cell viability (H4) | cell viability (GL261)
UGGUACCACAUGUAAACCA | 59.1% | 24.4%
UGGUACGACAUGUAAACCA | 62.3% | 39.5%
UGGUACUACAUGUAAACCA | 43.9% | 17.8%
UGGUAGAACAUGUAAACCA | 54.6% | 19.7%
UGGUAGCACAUGUAAACCA | 33.7% | 26.7%
UGGUAGGACAUGUAAACCA | 21.8% | 10.3%
UGGUAGUACAUGUAAACCA | 23.4% | 14.9%
UGGUAUAACAUGUAAACCA | 86.9% | 57.8%
UGGUAUCACAUGUAAACCA | 25.9% | 21.5%
UGGUAUGACAUGUAAACCA | 60.5% | 59.8%
UGGUAUUACAUGUAAACCA | 60.1% | 44.7%
UGGUCAAACAUGUAAACCA | 49% | 28%
UGGUCACACAUGUAAACCA | 49.5% | 11.5%
UGGUCAGACAUGUAAACCA | 49.5% | 21.8%
UGGUCAUACAUGUAAACCA | 69.5% | 17.1%
UGGUCCAACAUGUAAACCA | 39.6% | 54.4%
UGGUCCCACAUGUAAACCA | 8.82% | 8.28%
UGGUCCGACAUGUAAACCA | 38.8% | 8.62%
UGGUCCUACAUGUAAACCA | 22.8% | 14%
UGGUCGAACAUGUAAACCA | 57.7% | 38.9%
UGGUCGCACAUGUAAACCA | 38.2% | 16%
UGGUCGGACAUGUAAACCA | 25.3% | 10.7%
UGGUCGUACAUGUAAACCA | 51.3% | 12.9%
UGGUCUAACAUGUAAACCA | 77.9% | 59.4%

Sequence | cell viability (H4) | cell viability (GL261)
UGGUCUCACAUGUAAACCA | 57.2% | 38.8%
UGGUCUGACAUGUAAACCA | 33.3% | 53.6%
UGGUCUUACAUGUAAACCA | 45% | 25.6%
UGGUGAAACAUGUAAACCA | 53.1% | 40.7%
UGGUGACACAUGUAAACCA | 21.8% | 12.4%
UGGUGAGACAUGUAAACCA | 15.8% | 21.9%
UGGUGAUACAUGUAAACCA | 40% | 32.5%
UGGUGCAACAUGUAAACCA | 34.3% | 29.5%
UGGUGCCACAUGUAAACCA | 7.45% | 8%
UGGUGCGACAUGUAAACCA | 36.2% | 24.8%
UGGUGCUACAUGUAAACCA | 21% | 15.9%
UGGUGGAACAUGUAAACCA | 16.6% | 21%
UGGUGGCACAUGUAAACCA | 17.2% | 42.7%
UGGUGGGACAUGUAAACCA | 6.26% | 7.18%
UGGUGGUACAUGUAAACCA | 5.7% | 14.1%
UGGUGUAACAUGUAAACCA | 64.6% | 45.8%
UGGUGUCACAUGUAAACCA | 38% | 20.5%
UGGUGUGACAUGUAAACCA | 64.2% | 37.2%
UGGUGUUACAUGUAAACCA | 36% | 35.4%
UGGUUAAACAUGUAAACCA | 121% | 79.1%
UGGUUACACAUGUAAACCA | 114% | 71.7%
UGGUUAGACAUGUAAACCA | 89.5% | 39.8%
UGGUUAUACAUGUAAACCA | 97% | 76.5%
UGGUUCAACAUGUAAACCA | 49.4% | 40.5%

Sequence | cell viability (H4) | cell viability (GL261)
UGGUUCCACAUGUAAACCA | 21.1% | 12.2%
UGGUUCGACAUGUAAACCA | 79.9% | 34.4%
UGGUUCUACAUGUAAACCA | 45.4% | 38.3%
UGGUUGAACAUGUAAACCA | 77.3% | 40.6%
UGGUUGCACAUGUAAACCA | 35.4% | 22.2%
UGGUUGGACAUGUAAACCA | 25.9% | 19.2%
UGGUUGUACAUGUAAACCA | 99.6% | 63.6%
UGGUUUAACAUGUAAACCA | 121% | 90.6%
UGGUUUCACAUGUAAACCA | 95.9% | 72.4%
UGGUUUGACAUGUAAACCA | 101% | 68.9%
UGGUUUUACAUGUAAACCA | 119% | 73.2%
UGUAAAAACAUGUAAACCA | 94% | 69.8%
UGUAAACACAUGUAAACCA | 86.4% | 72%
UGUAAAGACAUGUAAACCA | 84.6% | 67.8%
UGUAAAUACAUGUAAACCA | 100% | 56.4%
UGUAACAACAUGUAAACCA | 101% | 62.2%
UGUAACCACAUGUAAACCA | 41.3% | 26.4%
UGUAACGACAUGUAAACCA | 83% | 73.2%
UGUAACUACAUGUAAACCA | 93.6% | 43.5%
UGUAAGAACAUGUAAACCA | 70% | 57.4%
UGUAAGCACAUGUAAACCA | 47.9% | 41.5%
UGUAAGGACAUGUAAACCA | 52.2% | 22.7%
UGUAAGUACAUGUAAACCA | 63.2% | 38.8%
UGUAAUAACAUGUAAACCA | 79.3% | 64.3%

Sequence | cell viability (H4) | cell viability (GL261)
UGUAAUCACAUGUAAACCA | 38.8% | 31%
UGUAAUGACAUGUAAACCA | 74.6% | 45.6%
UGUAAUUACAUGUAAACCA | 55.4% | 50.4%
UGUACAAACAUGUAAACCA | 90.8% | 60.7%
UGUACACACAUGUAAACCA | 59.9% | 41.1%
UGUACAGACAUGUAAACCA | 102% | 58.7%
UGUACAUACAUGUAAACCA | 113% | 58.8%
UGUACCAACAUGUAAACCA | 87.9% | 52.6%
UGUACCCACAUGUAAACCA | 33.5% | 13.3%
UGUACCGACAUGUAAACCA | 90.5% | 54.5%
UGUACCUACAUGUAAACCA | 30.6% | 26.5%
UGUACGAACAUGUAAACCA | 101% | 68.3%
UGUACGCACAUGUAAACCA | 69.5% | 60.5%
UGUACGGACAUGUAAACCA | 64.8% | 64%
UGUACGUACAUGUAAACCA | 108% | 60.3%
UGUACUAACAUGUAAACCA | 101% | 70.1%
UGUACUCACAUGUAAACCA | 64.8% | 45.6%
UGUACUGACAUGUAAACCA | 79.1% | 63.9%
UGUACUUACAUGUAAACCA | 75% | 37.7%
UGUAGAAACAUGUAAACCA | 84.5% | 78.9%
UGUAGACACAUGUAAACCA | 60.9% | 34%
UGUAGAGACAUGUAAACCA | 93.9% | 61.8%
